Measurements as given in the supplement of paper PMC11417369.
± gives the standard deviation of the averaged measurements. This is one part of the list.

What follows are sequences tested on PfAP2-LT AP2 domain (GST-tagged) (assay: gcPBM binding intensity (ln(normalized median fluorescence intensity)); higher = stronger DNA binding).
Procedure, shortened: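 Probes on an Agilent 4 × 180k array were primer-extended, double-stranded and 36 bp long, taken from intergenic genomic regions, with negative controls added. GST-tagged P. falciparum DNA-binding domains from E. coli, about 25 μg on average, were applied to the array for 1 h in 1× PBS containing 1% milk, 0.2 mg/ml BSA, 0.5% salmon testes DNA and 0.03% Triton X-100. Binding intensity, obtained after Alexa488 anti-GST antibody detection and a 488 nm scan, is the highest Masliner-normalised natural-log median intensity across replicate spots of either probe orientation.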

| Sequence | gcPBM binding intensity (ln) |
| --- | --- |
| ATTATTACATTTTTATGTACATATCAAATTTATACA [XGTACX_site7332] | 8.73 ± 0.47 |
| TTAAAATATGAATAATGTACAAGAAATTTTATTAAT [XGTACX_site6314] | 8.52 ± 0.45 |
| TCACTTAATATTTAATGTACATAAGGTTCTTGTGCC [XGTACX_site1822] | 8.66 ± 0.47 |
| TATAAATTAAAATGTGTGCACTAAATTGAAATAGAA | 9.02 ± 0.42 |
| ATATATATATATAATAGTACATATATTTTTATTGGT [XGTACX_site711] | 8.8 ± 0.29 |
| ATATTTTTTACAAATTGTACATTTTTACAATTATTA [XGTACX_site7496] | 8.76 ± 0.47 |
| TAACCTAAAATAACTACACACACATAAAAAAAAAAA [CACACA_site8807] | 9.45 ± 0.39 |
| TTATATAACATTATTTGTACATATAAAATATGGATG [XGTACX_site8526] | 8.49 ± 0.39 |
| AAAAAAAATTTATGGGGTACATATTATAATATTATA [XGTACX_site3395] | 8.73 ± 0.24 |
| TATATAACCTATAGCACACATATATAATATATATTA [CACACA_site1834] | 8.82 ± 0.35 |
| TTCTATTCAAATGCAAAATTATTAAATAAAAAATAA [GTGCAC_negctrl_site708] | 8.31 ± 0.43 |
| TTATTTTTTTTAAATTGTACAAGGAACAGTGAAAAA [XGTACX_site4380] | 8.34 ± 0.41 |
| TAAATGTCTTCAATGAAGTGGAAATGCTGTTATATA [CACACA_negctrl_site1155] | 8.54 ± 0.31 |
| TTTGTGTGTACGCGTGTGCACATTTTTTTTTTTTTT | 9.33 ± 0.28 |
| AAAAAAAATTTTAATTGTACAAAAAAAAAAAATATA [XGTACX_site2259] | 8.46 ± 0.66 |
| TATATATGGGTAACCTTTTTTTTTTTTTTTCGAACA [CACACA_negctrl_site1303] | 8.36 ± 0.52 |
| GGAAAATATGTTTGTGTGCACAGCTAGCTATTTGTA [GTGCAC_site9637] | 9.27 ± 0.26 |
| AATTTTTTTTGTCTCTGTACTTATAAAATATATATG [XGTACX_site4742] | 8.77 ± 0.43 |
| TTTTTTTTTTTCAAGCGTACAAAAAATATATTTAAA [XGTACX_site5327] | 8.2 ± 0.45 |
| AAATAAATTGATTCAACACACACATATGTAGGAAGT [CACACA_site9068] | 9.4 ± 0.37 |
| TGCAATTTAATATGAGTGCATATATTGAGAAAATAC | 8.73 ± 0.44 |
| AAAGAAATTATTTGTTGTACATATGTTATTTTTTTT [XGTACX_site7570] | 8.8 ± 0.47 |
| AAGGATATAACATACACACACACACCCATATATATA [CACACA_site4142] | 10.08 ± 0.099 |

| Sequence | gcPBM binding intensity (ln) |
| --- | --- |
| TAAAACCTTTAAAATACATGCAGCATATATAAGTAA [TGCATGCA_site181] | 8.76 ± 0.42 |
| ATATCATGTTAAGATTGTACATATATATAATATATA [XGTACX_site7626] | 8.64 ± 0.42 |
| AATAAATTGGTATGTTGTACAAAGTAACCATCGATT [XGTACX_site2823] | 8.9 ± 0.43 |
| ATTCATAATTTATTATGTACATATATATAATATATT [XGTACX_site1711] | 8.71 ± 0.4 |
| AAATAACAAATTTTTAAAATGTATATATATATATAT [TGCATGCA_negctrl_site219] | 9.51 ± 0.12 |
| TTTTAAATTTAATTTACACACTTTTCATAGCATTGA [CACACA_site3794] | 8.77 ± 0.46 |
| TTCTATTCACATTTTACACACGTCCATCGCATTTTA [CACACA_site3453] | 9.44 ± 0.46 |
| ATTGTGCTCATCAGCACACACAACATCATGTAATAA [CACACA_site1863] | 9.13 ± 0.42 |
| TTATATTTATAAAATTGTATACCCCTTCTAACTTTC [CACACA_negctrl_site250] | 8.59 ± 0.38 |
| TATATATATGGTTTAACACACGAGATAAAAGTATAT [CACACA_site2867] | 8.94 ± 0.47 |
| TATATGGTATGTATTACACACATATCACATATAGAT [CACACA_site7426] | 9.13 ± 0.26 |
| TATATATATATATAATGTACTTATATTTTTTTGAGG [XGTACX_site2638] | 9.02 ± 0.54 |
| TTAATTAAAACGAATACACACATAAATATGTAAAAG [CACACA_site6707] | 9.16 ± 0.35 |
| ATATGTATAAGTATGTATATTTATTTATACTTATGT [GTGCAC_negctrl_site221] | 8.88 ± 0.37 |
| AAAAAAAAAAAAAAAAGTACATATATATATTTATAT [XGTACX_site5893] | 8.62 ± 0.36 |
| TTCTTATTTAATGTATCACACACGAGAATAAAAAAT [CACACA_site8992] | 8.76 ± 0.35 |
| ACATTTAATGTTATATGTACATAATATTATAAGTAT [XGTACX_site1393] | 8.83 ± 0.41 |
| AATGTAAAAGTAAACACACACATATATTTATACATA [CACACA_site7218] | 9.36 ± 0.35 |
| AGCCATATCTTTTTTGCACACACTACAATAAAACAA [CACACA_site1650] | 9.2 ± 0.28 |
| CATATGGCAATAATTACATGCAAAAAAAAAAAAAAA [TGCATGCA_site578] | 8.72 ± 0.43 |
| ACAGACGTTCAAAGGTGTACGCAAAATGAATAATAT [XGTACX_site7565] | 9.03 ± 0.49 |
| AAAAAAAAGAAAAACACACACATATATATATATAAT [CACACA_site4707] | 9.53 ± 0.42 |
